Test results as given in PubChem BioAssay AID686971 (National Center for Advancing Translational Sciences (NCATS), 2013).
Out of some 360,000 compounds screened, about 7,500 (2.1%) were called active. Inconclusive means that the source gave no clear call. Such entries were picked first, then a sample of the others. Calls follow the shape of the dose curve; as a rule, active = well fitted cell-killing curve with a large enough effect; inconclusive = small, poorly fitted or top-dose-only effect, or effect the other way, or another doubt; inactive = no such curve, though single readings can be large or run the other way. Potencies of inconclusive entries are left out as doubtful fits.

experiment: qHTS for induction of synthetic lethality in tumor cells producing 2HG: qHTS for the HT-1080-IDH1KD cell line; details: HT-1080 IDH1 knockdown viability, ATP luminescence, 48 h; activity, negative = toxicity: at 46.1 µM (top of the series) unless noted;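 as to activity, negative = toxicity: 0% = DMSO wells and -100% = cell-free medium wells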
In short: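 Luminescent ATP read-out (CellTiter-Glo, 10 min at room temperature) after 48 h compound exposure at 37 °C gave viability of IDH1-knockdown HT-1080 cells. Activity was normalised to DMSO and cell-free wells, then fitted as concentration-response curves.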
Potency is read from the fitted curve at half-maximal effect; tags tell the direction and shape of the fitted curve.

**Q.** Which activity, negative = toxicity does the source give for NNC(=O)CNC(c1ccccc1)c1cc(Br)ccc1N (configuration not stated) here?
**A.** inconclusive: -2.49% [cytotoxic]

**Q.** With Cc1cccc(CNc2ccc(C(CC(N)=O)NC(=O)Cc3cccc4ccccc34)cc2[N+](=O)[O-])c1 (configuration not stated) as the compound, how does the Potency read?
**A.** inconclusive [cytotoxic, single point]

**Q.** For CC(=O)OCC1(O)CC23CCC4c5ccoc5CCC4(C)C2CCC1C3 (configuration not stated), which Potency is on record?
**A.** inconclusive [cytotoxic, single point]

**Q.** With Cc1nn(C(C)C(=O)NC(C)CCc2ccccc2)c(=O)c2cc3occc3n12 (configuration not stated) as the compound, how does the Potency read?
**A.** inactive

**Q.** Which Potency does the source give for O=C(CCNS(=O)(=O)c1ccc(Br)s1)Nc1ccc(Cl)cc1 here?
**A.** inconclusive [cytotoxic, single point]

**Q.** Which Potency does the source give for Cc1csc2ncnc(NNC(=O)c3ccc(Cl)cc3)c12 here?
**A.** inconclusive [cytotoxic, single point]

**Q.** For CN(C)S(=O)(=O)c1ccc(NC(=O)N2CCN(c3ccccc3Cl)CC2)cc1, which Potency is on record?
**A.** inactive

**Q.** For Cc1c(C(=O)N2CCCC2)c(S(=O)(=O)Nc2cccc(Br)c2)c(C)n1C, which Potency is on record?
**A.** inactive

**Q.** For Cc1cc(C)c(Cn2c3ccccc3c3cnn(CC(=O)NCc4ccccn4)c(=O)c32)c(C)c1, which Potency is on record?
**A.** inactive

**Q.** Which Potency does the source give for CSc1ccc(COC(=O)c2cc([N+](=O)[O-])ccc2N2CCOCC2)cc1 here?
**A.** active: 0.184 µM

**Q.** For CCC(=O)CN(Cc1cc(OC)ccc1OC)S(=O)(=O)c1ccccc1Br, which Potency is on record?
**A.** inactive

**Q.** For N#Cc1ccc(OCC(O)CN2CCC(C(O)(c3ccccc3)c3ccccc3)CC2)cc1 (configuration not stated), which Potency is on record?
**A.** inconclusive [cytotoxic, single point]

**Q.** For Cc1cc(C(=O)CCl)c(C)n1CC1COc2ccccc2O1 (configuration not stated), which Potency is on record?
**A.** active: 14.6 µM

**Q.** With CCOC(=O)c1sc(=S)n(C)c1NC(=O)c1cccc(Br)c1 as the compound, how does the Potency read?
**A.** inconclusive [cytotoxic, single point]

**Q.** With CCCc1nc2ccc(Br)cn2c1Cc1ccccc1OC as the compound, how does the Potency read?
**A.** inconclusive [cytotoxic, single point]

**Q.** With Cc1ccc(-c2nc3ccccn3c2Nc2ccc(F)cc2)o1 as the compound, how does the Potency read?
**A.** inactive

**Q.** Which Potency does the source give for CC1(C(=O)Nc2cccc(Oc3ccccc3)c2)CCN1C1Cc2ccccc2C1 (configuration not stated) here?
**A.** inconclusive [cytotoxic, single point]

**Q.** Which Potency does the source give for C/C(=N\NC(=O)c1ccc(C)cc1C)c1ccc2c(c1)Nc1ccccc1S2 here?
**A.** inconclusive [cytotoxic, single point]

**Q.** Which Potency does the source give for Cc1ccc(C)c(OCC(O)CN2CCCCC2C)c1 (configuration not stated) here?
**A.** inactive

**Q.** With Cc1nnsc1C(=O)NNc1ccc(Cl)cc1 as the compound, how does the Potency read?
**A.** inconclusive [cytotoxic, single point]

**Q.** Which Potency does the source give for Cc1[nH]c2ccccc2c1CN1CCC(Cc2ccccc2)CC1 here?
**A.** active: 23.1 µM

**Q.** For O=C(NC1CC1)C1=C[C@H](c2ccc3c(c2)OCO3)C[C@H](OCc2ccc(CO)cc2)O1, which Potency is on record?
**A.** inactive

**Q.** Which Potency does the source give for CCCOC(=O)CSC1=C(C#N)C(c2ccc3c(c2)OCO3)CC(=O)N1 (configuration not stated) here?
**A.** inconclusive [cytotoxic, single point]

**Q.** With CN1C(=S)SC(N(O)C(=O)Nc2ccc(Cl)c(Cl)c2)C1(C)C (configuration not stated) as the compound, how does the Potency read?
**A.** inconclusive [cytotoxic, partial curve]

**Q.** With Cc1c(C(=O)Nc2cccc(Cl)c2)c2ccccn2c1CCc1ccncc1 as the compound, how does the Potency read?
**A.** inconclusive [cytotoxic, single point]

**Q.** Which activity, negative = toxicity does the source give for COCCn1c(SCc2ccc(C(=O)OC)o2)nc2ccccc2c1=O here?
**A.** inactive: 6.88% [at 9.24 µM]

**Q.** Which Potency does the source give for O=C(/C=C/c1ccc2c(c1)OCO2)NCCSCc1c(Cl)cccc1Cl here?
**A.** inconclusive [cytotoxic, single point]

**Q.** With CN(C)c1ccc(C=c2c3ccccc3n3c2cc(-c2ccccc2)[n+]3C)cc1 as the compound, how does the Potency read?
**A.** active: 20.6 µM

**Q.** For CCOC(=O)N1CCN(C(=O)C2CCN(S(=O)(=O)c3cc(Cl)ccc3Cl)CC2)CC1, which Potency is on record?
**A.** inactive

**Q.** For COc1ccc(-c2cc3ncc(C(C)=O)c(C)n3n2)cc1, which Potency is on record?
**A.** inactive

**Q.** Which Potency does the source give for COc1cc(CN2CCN(c3ccc(C)cc3)CC2)cc([N+](=O)[O-])c1O here?
**A.** inconclusive [cytotoxic, single point]

**Q.** With Cc1cc(C)c2nc(N3CCN(C(=O)c4ccco4)CC3)sc2c1 as the compound, how does the Potency read?
**A.** inconclusive [rising, single point]

**Q.** Which Potency does the source give for CCCCCC1=CCC/C1=N\NC(=O)c1ccc2c(c1)OCO2 here?
**A.** inactive

**Q.** Which Potency does the source give for O=c1[nH]c(=O)n([C@H]2C[C@H](O)[C@@H](CO)O2)cc1C(F)(F)F here?
**A.** active: 2.06 µM

**Q.** For COC(=O)C1=CN(c2ccc(C)cc2)C(N)=C(C#N)C1c1ccccc1F (configuration not stated), which Potency is on record?
**A.** inconclusive [cytotoxic, single point]

**Q.** Which Potency does the source give for CCc1ccc(OCC(=O)N/N=C/c2cc([N+](=O)[O-])ccc2N2CCCCCC2)cc1 here?
**A.** inactive

**Q.** Which Potency does the source give for COc1ccc(NC(=O)CCN2C(=O)C3C4CCC(C4)C3C2=O)cc1 (configuration not stated) here?
**A.** inconclusive [cytotoxic, partial curve]

**Q.** For COc1ccc(NC(=O)Nc2ccccc2C(N)=O)cc1, which Potency is on record?
**A.** inactive

**Q.** Which Potency does the source give for O=C(c1ccc(Cl)cc1)c1c[nH]c(C(=O)NNc2cccc(Cl)n2)c1 here?
**A.** inconclusive [cytotoxic, single point]

**Q.** Which Potency does the source give for C=C(C)CNC(=S)/N=c1\scc(C)n1CC here?
**A.** inconclusive [cytotoxic, partial curve]

**Q.** Which Potency does the source give for COc1cccc(C(C)(O)c2nc(-c3ccc(OC)c(OC)c3)cs2)c1 (configuration not stated) here?
**A.** inconclusive [cytotoxic, single point]

**Q.** Which Potency does the source give for CCN(CC)S(=O)(=O)c1cc(NC(=O)CNc2cccc(S(=O)(=O)N3CCOCC3)c2)ccc1C here?
**A.** active: 18.4 µM

**Q.** With CCN(CCNCC(O)COCc1ccc(Cl)cc1)c1cccc(C)c1 (configuration not stated) as the compound, how does the Potency read?
**A.** inconclusive [cytotoxic, single point]

**Q.** For Cc1cc(=O)oc2cc(OCC3CC(c4ccccc4)=NO3)ccc12 (configuration not stated), which Potency is on record?
**A.** inconclusive [cytotoxic, single point]

**Q.** With Cc1ccc(Cn2c(=N)n(CC(O)COc3ccccc3)c3ccccc32)cc1 (configuration not stated) as the compound, how does the Potency read?
**A.** inconclusive [cytotoxic, single point]

**Q.** With OC(CN1CCCCC1)Cn1c2ccccc2c2cc(Br)ccc21 (configuration not stated) as the compound, how does the Potency read?
**A.** inconclusive [cytotoxic, single point]

**Q.** With CCCc1cc(CN2CCOCC2)c(O)c(CN2CCOCC2)c1O as the compound, how does the Potency read?
**A.** inconclusive [cytotoxic, single point]
